Laboratory results: patent US20110218157A1

Columns and labels:
[1] = target: inactivated DENV2 virons (strain 16681; Microbix Corp.) (Dengue virus 2, strain 16681) (UniProt P29990); experiment: reverse ELISA: PAP-IC on DENV2 (16681) viron-coated plate, sample 3
[2] = target: inactivated DENV2 virons (strain 16681; Microbix Corp.) (Dengue virus 2, strain 16681) (UniProt P29990); experiment: reverse ELISA: PAP-IC on DENV2 (16681) viron-coated plate, sample 1
[3] = target: inactivated DENV2 virons (strain 16681; Microbix Corp.) (Dengue virus 2, strain 16681) (UniProt P29990); experiment: reverse ELISA: PAP-IC on DENV2 (16681) viron-coated plate, sample 4
[4] = target: inactivated DENV2 virons (strain 16681; Microbix Corp.) (Dengue virus 2, strain 16681) (UniProt P29990); experiment: reverse ELISA: PAP-IC on DENV2 (16681) viron-coated plate, average of 4
[5] = target: inactivated DENV2 virons (strain 16681; Microbix Corp.) (Dengue virus 2, strain 16681) (UniProt P29990); experiment: reverse ELISA: PAP-IC on DENV2 (16681) viron-coated plate, sample 2

Work on “peroxidase-rabbit anti-peroxidase IgG immune complex (PAP complex) (from UniProt P00433 31-338)” yielded an OD405 nm [1] of 3.05 OD405 nm, an OD405 nm [2] of 3.11 OD405 nm and an OD405 nm [3] of 3.08 OD405 nm. The OD405 nm (average) [4] was 3.08 OD405 nm and the OD405 nm [5] was 3.09 OD405 nm.
